# The inconclusive results got no clear call from the source; some entries with a clear call stand among them for comparison. For some assays here: Potencies of inconclusive entries are left out as doubtful fits. Activity calls are given as the source filed them. Unless noted, calls come from the whole dose curve; as a rule, active = well fitted curve in the direction sought with a large enough effect; inconclusive = small, poorly fitted or top-dose-only effect, or another doubt; inactive = no such curve, though single readings can be large; an effect the other way counts as inactive or inconclusive.
# Tests used:
# [1] = qHTS Validation Assay to Find Inhibitors of Chronic Active B-Cell Receptor Signaling (AID 485345; active = well fitted curve in the direction sought with a large enough effect in the main read-out, with a control signal flat, not every such curve was filed as active; inconclusive = small, poorly fitted or top-dose-only effect, or effect the other way, or a change in a side signal; inactive = no such curve, though single readings can be large or run the other way;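 note: 0% = untreated basal cells and 100% = 10 µM MG-132 proteasome inhibitor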); conditions: ABC-DLBCL cells, chronic BCR signaling reporter; activity change: CBG luciferase, at 46.1 µM (top of the series)
# How it was run: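 TMD8 ABC-DLBCL cells with dox-inducible green luciferase–IκBα fusion and red native luciferase; compounds 46 uM–3 nM, 4 h at 37C with doxycycline in 0.5% FBS IMDM. Green/red ratio normalized to basal and 10 uM MG-132.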
# [2] = target: ATP-dependent 6-phosphofructokinase (Trypanosoma brucei brucei) (UniProt O15648); experiment: qHTS Validation Assay to Find Inhibitors of T. brucei phosphofructokinase (AID 485368); conditions: activity change, negative = inhibition: at 57.5 µM (top of the series); note: potency is the fitted concentration of half-maximal effect;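 for activity change, negative = inhibition: 0% = full PFK enzyme control and -100% = wells without enzyme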
# How it was run: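 qHTS format, up to 57 uM. PFK 1.25 nM; F6P 0.5 mM; ATP 0.1 mM; 5 mM MgCl2, 0.01% Tween20, 0.1% BSA; 0.1 M TEA pH 8.0; 45 min RT; ADP-Glo readout; no-enzyme control = full inhibition.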
# [3] = Quantitative high throughput screen for delayed death inhibitors of the malarial parasite plastid, 96 hour incubation (AID 488745); note: nearly all actives have a fitted effect of over 70% in size; note: potency is the fitted concentration of half-maximal effect;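 for activity change, negative = inhibition: luciferase-expressing P. falciparum in erythrocytes at 2% hematocrit and 0.1% parasitemia; % is set by controls: 0 for no effect and ±100 for the full control effect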
# How it was run: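 Luciferase-expressing P. falciparum, infected RBCs 2% Hct/0.1% parasitemia (final); 96 h cpd exposure, 37 C, 5% CO2; RPMI 1640 + 0.5% Albumax, bicarbonate, gentamycin. Readout: luminescence loss = growth inhibition.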
# [4] = target: Thioredoxin reductase 1, cytoplasmic (Rattus norvegicus) (UniProt O89049); experiment: qHTS Assay for Substrates of Mammalian Selenoprotein Thioredoxin Reductase 1 (TrxR1) (AID 488772); conditions: purified TrxR1, NADPH consumption substrate assay;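 note: potency is the fitted concentration of half-maximal effect; a drop in NADPH fluorescence below the no-compound background marks a TrxR1 substrate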
# How it was run: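 In this dual-purpose format, potential substrates are identified from the first fluorescence read after selenite addition, not from the 8-minute delta. Rat enzyme is preincubated with NADPH and then with compound at ~22 deg C.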
# [5] = target: Chromobox protein homolog 1 (Homo sapiens) (UniProt P83916); experiment: qHTS Validation Assay for Inhibitors of HP1-beta Chromodomain Interactions with Methylated Histone Tails (AID 488953); note: nearly all actives have a fitted effect of over 50% in size; note: potency is the fitted concentration of half-maximal effect;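 for activity change, negative = inhibition: loss of AlphaScreen luminescence from HP1-beta binding biotinylated H3K9me3 peptide; % is set by controls: 0 for no effect and ±100 for the full control effect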
# How it was run: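 AlphaScreen proximity readout: streptavidin donor and Ni-chelate acceptor beads, 10 ug/mL final, 30 min dark, RT. Complex of 50 nM HP1-beta and 50 nM b-H3(1-18)K9me3 formed 30 min, then compound-treated 30 min; PBS pH 7.4/0.01% Tween-20.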
# [6] = Quantitative high throughput screen for delayed death inhibitors of the malarial parasite plastid, 48 hour incubation (AID 488752); note: nearly all actives have a fitted effect of over 65% in size; note: potency is the fitted concentration of half-maximal effect; for activity change, negative = inhibition: % is set by controls: 0 for no effect and ±100 for the full control effect
# How it was run: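 Luciferase-expressing P. falciparum in RBCs, 2% Hct, 0.1% parasitemia final; RPMI 1640 + 0.5% Albumax; 48 h, 37 C, 5% CO2; luminescence readout, signal drop = growth inhibition.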
# [7] = Validation screen for small molecules that induce DNA re-replication in MCF 10A normal breast cells (AID 463097); note: nearly all actives have a fitted effect of over 60% in size; note: potency is the fitted concentration of half-maximal effect
# How it was run: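 250 MCF 10A cells/well; compound pin-transferred; 48 hr, 37 C, 5% CO2; Hoechst 40 min; imaged 405/500-530 nm. Hits = more high-intensity nuclei.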
# [8] = target: Methanococcus maripaludis chaperonin (MmCpn) (UniProt Q6LX38); experiment: High-Throughput Screening for Modulators of Cytosolic Chaperonin Activity: MmCpn Primary Screen (AID 488978); conditions: Purified MmCpn ATPase activity, ADP HTRF detection, 10 min; note: potency is the fitted concentration of half-maximal effect
# How it was run: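 ADP formation read by HTRF Transcreener, 665/590 nm emission after 320 nm excitation. Enzyme: archaeal chaperonin at 50 nM final; substrate ATP 30 uM final; 10 min, 37C, after 5 min compound preincubation at RT.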
# [9] = target: Thioredoxin reductase 1, cytoplasmic (Rattus norvegicus) (UniProt O89049); experiment: qHTS Assay for Inhibitors of Mammalian Selenoprotein Thioredoxin Reductase 1 (TrxR1) (AID 488773); conditions: Potency: inhibition; note: nearly all actives have a fitted effect of over 40% in size; note: potency is the fitted concentration of half-maximal effect;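 for activity change, negative = inhibition: drop in NADPH fluorescence over an 8 min run after selenite addition; % is set by controls: 0 for no effect and ±100 for the full control effect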
# How it was run: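 Inhibition is scored from the loss of NADPH fluorescence between first and last reads of an 8-min kinetic run. Selenite (400 uM) was the substrate, added after 15 min compound preincubation at room temperature.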
# [10] = target: M-phase phosphoprotein 8 (Homo sapiens) (UniProt Q99549); experiment: qHTS Validation Assay for Inhibitors for MPP8 Chromodomain Interactions with Methylated Histone Tails (AID 488949); note: nearly all actives have a fitted effect of over 55% in size; note: potency is the fitted concentration of half-maximal effect
# How it was run: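 AlphaScreen read-out: streptavidin donor and nickel chelate acceptor beads (final 10 ug/mL), 30 min in the dark at RT. Complex of 50 nM MPP8 and 50 nM b-H3(1-18)K9me3 peptide had been exposed to compounds for 30 min beforehand.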
# Tags give direction and shape of the fitted curve.
# UniProt O89049, sequence (O89049 whole entry, looked up): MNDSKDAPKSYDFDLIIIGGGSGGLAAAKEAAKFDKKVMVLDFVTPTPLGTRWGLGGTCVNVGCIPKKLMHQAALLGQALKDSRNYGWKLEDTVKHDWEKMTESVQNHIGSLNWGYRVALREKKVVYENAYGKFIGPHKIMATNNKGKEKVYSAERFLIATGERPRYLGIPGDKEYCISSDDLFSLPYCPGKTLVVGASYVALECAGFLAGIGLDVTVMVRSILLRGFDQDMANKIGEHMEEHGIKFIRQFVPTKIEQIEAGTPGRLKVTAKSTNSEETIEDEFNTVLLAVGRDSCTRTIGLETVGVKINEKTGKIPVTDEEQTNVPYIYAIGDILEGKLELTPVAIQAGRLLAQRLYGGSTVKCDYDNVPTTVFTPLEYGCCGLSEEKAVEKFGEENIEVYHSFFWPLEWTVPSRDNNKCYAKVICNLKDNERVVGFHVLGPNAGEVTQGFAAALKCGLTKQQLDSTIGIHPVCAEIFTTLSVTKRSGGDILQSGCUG
# UniProt O15648, sequence (O15648 whole entry, looked up): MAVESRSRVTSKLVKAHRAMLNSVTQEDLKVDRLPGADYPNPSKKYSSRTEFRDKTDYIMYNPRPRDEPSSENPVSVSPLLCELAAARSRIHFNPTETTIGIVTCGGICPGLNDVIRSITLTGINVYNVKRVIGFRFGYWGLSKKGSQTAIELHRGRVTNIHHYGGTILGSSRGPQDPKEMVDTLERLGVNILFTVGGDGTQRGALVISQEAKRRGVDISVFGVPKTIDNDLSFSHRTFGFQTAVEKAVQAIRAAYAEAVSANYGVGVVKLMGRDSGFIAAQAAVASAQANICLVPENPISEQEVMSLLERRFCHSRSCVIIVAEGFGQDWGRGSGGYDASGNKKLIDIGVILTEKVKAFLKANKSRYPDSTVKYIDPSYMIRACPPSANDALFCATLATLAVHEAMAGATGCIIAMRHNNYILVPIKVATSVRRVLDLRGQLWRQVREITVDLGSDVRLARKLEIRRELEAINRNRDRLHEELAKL
# UniProt P83916, sequence (P83916 whole entry, looked up): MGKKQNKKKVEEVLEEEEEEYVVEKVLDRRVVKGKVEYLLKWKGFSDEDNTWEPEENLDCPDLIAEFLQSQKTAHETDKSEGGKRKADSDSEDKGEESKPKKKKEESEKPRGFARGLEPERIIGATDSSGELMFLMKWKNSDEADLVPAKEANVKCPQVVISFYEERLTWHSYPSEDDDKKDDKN
# UniProt Q99549, sequence (Q99549 whole entry, looked up): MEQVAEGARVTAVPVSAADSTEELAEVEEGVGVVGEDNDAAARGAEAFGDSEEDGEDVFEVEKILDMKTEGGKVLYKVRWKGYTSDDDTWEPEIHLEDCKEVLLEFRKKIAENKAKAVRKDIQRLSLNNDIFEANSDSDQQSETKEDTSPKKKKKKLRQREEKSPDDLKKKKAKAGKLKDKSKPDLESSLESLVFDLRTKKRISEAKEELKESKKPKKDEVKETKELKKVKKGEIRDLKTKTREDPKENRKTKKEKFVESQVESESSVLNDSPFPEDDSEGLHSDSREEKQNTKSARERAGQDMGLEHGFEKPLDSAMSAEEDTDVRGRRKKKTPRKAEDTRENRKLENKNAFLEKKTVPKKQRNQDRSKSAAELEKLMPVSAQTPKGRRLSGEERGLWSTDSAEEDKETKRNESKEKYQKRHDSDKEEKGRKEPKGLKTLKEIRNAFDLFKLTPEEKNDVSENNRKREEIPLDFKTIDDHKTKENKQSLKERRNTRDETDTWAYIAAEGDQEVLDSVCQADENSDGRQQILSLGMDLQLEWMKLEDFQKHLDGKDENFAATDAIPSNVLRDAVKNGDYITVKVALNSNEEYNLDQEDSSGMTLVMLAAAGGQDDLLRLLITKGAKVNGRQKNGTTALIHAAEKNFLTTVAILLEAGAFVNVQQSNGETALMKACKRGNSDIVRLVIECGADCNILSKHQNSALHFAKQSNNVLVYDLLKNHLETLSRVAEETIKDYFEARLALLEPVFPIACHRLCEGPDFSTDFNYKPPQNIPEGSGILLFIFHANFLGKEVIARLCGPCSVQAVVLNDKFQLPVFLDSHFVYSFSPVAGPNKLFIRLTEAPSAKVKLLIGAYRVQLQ
structure (smiles),measurement,setting,value
NC(=O)NO,Potency,[1],inactive
same,Potency,[2],inactive
same,Potency,[3],inactive
same,Potency,[4],"inconclusive [inhibitor, partial curve, poor fit]"
same,Potency,[5],inactive
CN1C[C@H](C(=O)N[C@]2(C)O[C@@]3(O)C4CCCN4C(=O)[C@H](Cc4ccccc4)N3C2=O)C[C@@H]2c3cccc4[nH]cc(c34)C[C@H]21 (stereo partly drawn),Potency,[3],active: 2.94 µM
same,Potency,[6],active: 2.33 µM
NC(=O)c1cccc(N)c1,Potency,[2],"inconclusive [activator, single point]"
CCN1CCc2nc(N)oc2CC1,Potency,[2],inactive
same,Potency,[3],inactive
CNCCCC1c2ccccc2C=Cc2ccccc21,Potency,[7],inactive
same,Potency,[2],"inconclusive [activator, single point]"
same,Potency,[6],active: 14.7 µM
same,Potency,[8],"inconclusive [inhibitor, single point]"
CNCCC(Oc1ccc(C(F)(F)F)cc1)c1ccccc1 (stereo not drawn),Potency,[6],"inconclusive [inhibitor, single point]"
NNCCc1ccccc1,Potency,[2],"inconclusive [activator, single point]"
same,Potency,[3],inactive
CCN(Cc1ccncc1)C(=O)C(CO)c1ccccc1 (stereo not drawn),Potency,[5],inactive
N[C@H](Cc1ccc(O)c(O)c1)C(=O)O,Potency,[3],inactive
CC(=O)Oc1cc(C(C)C)c(OCCN(C)C)cc1C,Potency,[2],inactive
same,Potency,[3],inactive
same,Potency,[6],inactive
Cc1cc2c(C(C)C)c(O)c(O)c(C=O)c2c(O)c1-c1c(C)cc2c(C(C)C)c(O)c(O)c(C=O)c2c1O,activity change,[1],inconclusive: 50.3%
COc1cc2c(cc1OC)-c1cc(=Nc3c(C)cc(C)cc3C)n(C)c(=O)n1CC2,Potency,[7],"inconclusive [activator, single point]"
same,Potency,[2],inactive
same,Potency,[3],active: 3.7 µM
same,Potency,[6],active: 2.62 µM
c1cnc(N2CCN(Cc3ccc4c(c3)OCO4)CC2)nc1,"activity change, negative = inhibition",[2],inconclusive: 27% [activator]
O=C1N=C(O)CN1/N=C/c1ccc(-c2ccc([N+](=O)[O-])cc2)o1,Potency,[2],"inconclusive [activator, partial curve]"
same,Potency,[3],"inconclusive [inhibitor, single point]"
same,Potency,[6],"inconclusive [activator, partial curve, poor fit]"
same,Potency,[4],"inconclusive [inhibitor, partial curve]"
same,Potency,[5],"inconclusive [inhibitor, partial curve]"
CNCCC(Oc1ccccc1OC)c1ccccc1 (stereo not drawn),Potency,[7],inactive
same,Potency,[2],inactive
COc1ccc2cc([S+]([O-])Cc3ncc(C)c(OC)c3C)nc2c1,Potency,[2],"inconclusive [falling, single point]"
same,Potency,[9],inactive
same,Potency,[10],"inconclusive [inhibitor, single point]"
CN(Cc1cnc2nc(N)nc(N)c2n1)c1ccc(C(=O)N[C@@H](CCC(=O)O)C(=O)O)cc1,Potency,[2],active: 37.9 µM
same,Potency,[5],"inconclusive [inhibitor, partial curve]"
CCCC1O[C@@H]2C[C@H]3[C@@H]4CCC5=CC(=O)C=C[C@]5(C)[C@H]4[C@@H](O)C[C@]3(C)[C@]2(C(=O)CO)O1 (stereo partly drawn),activity change,[1],inconclusive: -30.9%
same,Potency,[2],"inconclusive [activator, single point]"
same,Potency,[9],inactive
CC(=O)OCC1=C(C(=O)O)N2C(=O)[C@@H](NC(=O)Cc3cccs3)[C@H]2SC1,Potency,[2],"inconclusive [falling, single point]"
same,Potency,[9],"inconclusive [inhibitor, partial curve]"
CCCN(CCC)CCc1cccc2c1CC(=O)N2,Potency,[2],"inconclusive [activator, partial curve, poor fit]"
same,Potency,[3],inactive
same,Potency,[6],inactive
CCc1c(C)[nH]c2c1C(=O)C(CN1CCOCC1)CC2 (stereo not drawn),Potency,[9],active: 29.9 µM
same,Potency,[10],"inconclusive [inhibitor, single point]"
same,Potency,[5],"inconclusive [inhibitor, partial curve]"
O=C(CCNNC(=O)c1ccncc1)NCc1ccccc1,Potency,[10],inactive
same,Potency,[5],inactive

# — PubChem BioAssay (NCATS)
